Measured values taken from PubChem BioAssay AID1745853 (National Center for Advancing Translational Sciences (NCATS), 2022).
Where “and” joins values, the source holds several entries; their conditions need not be identical. Equal entries are not always repeated. The list shows a part of the results. These are further read-outs of the screen, such as a control signal, another cell line or another target. No call is given for them.

Columns and labels:
Assay in all cases: Primary Screen for Target Class Profiling of Small Molecule Inhibitors of Methyltransferases
[1] = biological target: Glycine N-methyltransferase (Homo sapiens) (UniProt Q14749); conditions: purified enzyme, MTase-Glo SAH luminescence; measured here: GNMT inhibition; at 40 µM; stronger effect = lower value
Method in brief: (§1)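 Each enzyme was assayed with SAM and its substrate. SAH formation detected by MTase-Glo luminescence; single-point 40 uM screen[…].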

[2] = biological target: Guanidinoacetate N-methyltransferase (Homo sapiens) (UniProt Q14353); conditions: purified enzyme, MTase-Glo SAH luminescence; measured here: GAMT inhibition; at 40 µM; stronger effect = lower value
Method in brief: as §1

[3] = biological target: Histamine N-methyltransferase (Homo sapiens) (UniProt P50135); conditions: purified enzyme, MTase-Glo SAH luminescence; measured here: HNMT inhibition; at 40 µM; stronger effect = lower value
Method in brief: as §1

[4] = biological target: Nicotinamide N-methyltransferase (Homo sapiens) (UniProt P40261); conditions: purified enzyme, MTase-Glo SAH luminescence; measured here: NNMT inhibition; at 40 µM; stronger effect = lower value
Method in brief: as §1

[5] = biological target: Phenylethanolamine N-methyltransferase (Homo sapiens) (UniProt P11086); conditions: purified enzyme, MTase-Glo SAH luminescence; measured here: PNMT inhibition; at 40 µM; stronger effect = lower value
Method in brief: as §1
On the % scale 0 is the no-effect control and ±100 the full control effect.

Row | SMILES | activity change, negative = inhibition [1] [%] | activity change, negative = inhibition [2] | activity change, negative = inhibition [3] [%] | activity change, negative = inhibition [4] | activity change, negative = inhibition [5]
1 | Cc1ccc(CCCO)c(NCc2ccc3nc(NCCCN4CCOCC4)n(Cc4nc(C)ccc4O)c3c2)c1 | -1.77 | 23.2% | -9.34 | -2.74% | 7.83%
2 | CCn1c(=O)n(CC)c2cc(S(=O)(=O)N3CCC(Cc4ccccc4)CC3)ccc21 | 0.862 | 2.53% | 4.04 | -5.83% | 7.3%
3 | c1ccc(CNc2ncc(CN3CCC4(CCNCC4)C3)cn2)cc1 | -6.86 | -7.22% | -10.1 | -15.7% | -10.9%
4 | Cc1cc2c(cc1S(=O)(=O)Nc1ccc(C(C)C)cc1)n(C)c(=O)n2C | 2.91 | 0% | 0.319 | -9.29% | -0.514%
5 | Fc1ccc(N2CCN(c3nc4ccccc4c4nc(-c5ccccc5)nn34)CC2)cc1 |  | 8.28% |  | -3.62% | 3.17%
6 | CC1OC(OC2C(OC(=O)[C@]34CCC(C)(C)C[C@H]3C3=CCC5[C@@]6(C)CC[C@H](OC7OC(C(=O)O)C(O)C(O)C7O)C(C)(C)C6CC[C@@]5(C)[C@]3(C)CC4O)OC(CO)C2O)C(O)C(O)C1OC1OCC(O)C(O)C1O (some centres undefined) | 1.71 | 5.27% | 10.1 | -10.6% | 1.58%
7 | CC1(C(=O)NC2CCCC2)Cn2c(ccc2-c2ccco2)C(=O)N1Cc1ccc(F)cc1 (centres undefined) | -6.78 | -1.61% | 0.747 | -7.8% | -2.71%
8 | Cc1c(C(=O)N2CCC(C(=O)N3CCN(c4ccccc4)CC3)CC2)oc2cc3sc(N(C)C)nc3cc12 | -5.28 | 4.87% | 3 | 4.28% | -0.551%
9 | CC(=O)/C=C/C1(O)C(C)CC(O[C@@H]2O[C@H](CO)[C@@H](O)[C@H](O)[C@H]2O)CC1(C)C (some centres undefined) | 16.5 | 5.4% | 11.2 | -7.84% | 8.3%
10 | C=CC/C=C\C/C=C\CCCCCCCc1cccc(O)c1C(=O)O | -11.5 | -23.2% | 0.987 | -38.3% | -9.07%
11 | COc1ccc(CN2C(=O)c3cc(-c4ccc(C(C)C)cc4)nn3CC2(C)C(=O)NCCC(C)C)cc1 (centres undefined) | 2.36 | 0% | 3.13 | 3.54% | -1.82%
12 | CCCn1c(=O)c2ccc(C(=O)NCC(C)C)cc2n2c(=O)n(CC(=O)c3ccc(C)cc3)nc12 | 2.36 | 0% | 6.08 | 3.56% | 3.91%
13 | CC1CCN(S(=O)(=O)c2ccc3c(c2)oc(=O)n3CC(=O)N2CCN(C3CCCCC3)CC2)CC1 | -1.16 | 0% | -5.11 | 3.73% | 0.569%
14 | C=C1CC2[C@@]3(C)C=CC(=O)C(C)(C)C3=C(O)C(=O)[C@@]2(C)C2(C(=O)OC)C(=O)C(C)OC(=O)[C@@]12C (some centres undefined) | -8.73 | -6.71% | 3.48 | -17.5% | -0.79%
15 | O=C(NCc1ccc(Cl)cc1)c1ccc2c(=O)nc3c(-c4ccc(F)cc4)n[nH]n3c2c1 | -10.7 | 0.734% | 0.197 | -8.62% | -2.63%
16 | COc1ccc(-c2cc3n(n2)CC(C)(C(=O)NCc2ccccc2)N(c2ccc(F)cc2)C3=O)cc1 (centres undefined) | 1.55 | 2.67% | 5.51 | -0.541% | -0.378%
17 | CCN1CCC(N2CC[C@H](CO)[C@H](N(C)C)C2)CC1 | -1.09 | -1.24% | -1.47 | -2.94% | 2.07%
18 | C=C1C(=O)O[C@@H]2C(OC(=O)/C(C)=C\C)/C(C)=C\C(=O)/C=C(\C)C[C@H](O)[C@@H]12 (some centres undefined) | -4.73 | -12% | 6.32 | -20.6% | -2.37%
19 | COc1ccccc1CNS(=O)(=O)c1ccc2[nH]c(=O)[nH]c2c1 | 11.6 | 2.61% | 9.62 | 0.665% | 0.369%

Row | SMILES | activity change, negative = inhibition [1] [%] | activity change, negative = inhibition [2] | activity change, negative = inhibition [3] [%] | activity change, negative = inhibition [4] | activity change, negative = inhibition [5]
20 | OC1CCOC2(CCN(Cc3ccc4cc[nH]c4c3)CC2)C1 (centres undefined) | -5.04 | -6.49% | -15.7 | -4.82% | -4.12%
21 | COc1nc(C)nc(Cl)c1NC1=NCCN1 | 2.87 | 8.93% | 4.39 | -4.25% | 1.62%
22 | Cc1ccc(SC2CCN(Cc3nc(CCc4ccccc4)no3)CC2)cc1 | -7.13 | -4.79% | -3.99 | -6.08% | -6.72%
23 | CCOC(=O)c1cc2n(n1)CC(C)(C(=O)NCCC(C)C)N(c1cc(C)ccc1OC)C2=O (centres undefined) | 3.58 | 1.34% | 5.32 | 9.04% | 1.3%
24 | CCCn1c(=O)c2ccc(Cl)cc2n2c(=O)n(CC(=O)c3ccc(OCC)cc3)nc12 | -1.13 | -0.243% | 5.38 | 0.338% | -0.001%
25 | COc1cccc(CN2C(=O)c3ccc(-c4ccco4)n3CC2(C)C(=O)NC2CCCCCC2)c1 (centres undefined) | -0.198 | 0% | 6.2 | -7.73% | 1.83%
26 | O=C1CCc2cc(S(=O)(=O)Nc3cccc(Cl)c3)ccc2N1 |  | 4.25% |  | -11% | -7.64%
27 | Cc1noc(C)c1CC(=O)N(C)C1CCc2nnc(C)n2CC1 (centres undefined) | -0.78 | 0.204% | -0.035 | -2.93% | 4.07%
28 | COc1cccc(CN2CCC3(CCC3OC)CC2)c1 (centres undefined) | -2.57 | -2.46% | -2.37 | 1.41% | -0.574%
29 | CCCCS(=O)(=O)N[C@@H](Cc1ccc(OCCCCC2CCNCC2)cc1)C(=O)O | 4.75 | 4.43% and -6.39% | 13 | -4.15% and -17.1% | 8.49% and -10.7%
30 | COc1ccc(CC2(CO)CCNCC2)cc1 | -0.771 | 4.94% | 4.02 | -4.97% | 11.8%
31 | CC(=O)Nc1c2n(c3ccc(F)cc13)CC(C)(C(=O)NC1CCCCC1)N(Cc1ccccn1)C2=O (centres undefined) | -2.6 | -4.65% | -8.82 | -3.52% | -0.219%
32 | CC1(C(=O)NCc2ccc(F)cc2)Cn2cnc(C(=O)NCc3cccc(Cl)c3)c2C(=O)N1C1CC1 (centres undefined) | -11.2 | -2.07% | -6.29 | -8.83% | -8.81%
33 | NCCS(=O)(=O)O | 4.38 | 10.8% | 9.28 | -6.83% | 1.33%
34 | O=C(Nc1cc(C(F)(F)F)ccc1N1CCCCC1)c1ccncc1 | -3.21 | 1.47% | 3.6 | -18.3% | -12.5%
35 | Cc1ccc(N2CCN(S(=O)(=O)c3ccc4[nH]c(=O)[nH]c4c3)CC2)c(C)c1 | 11.8 | 1.89% | 9.57 | -1.23% | 4.7%
36 | COc1cc2c(cc1OC)/C(=C/c1ccc(O)cc1)C(=O)N2 |  | 3.55% |  | -30.4% | 1.51%
37 | Cc1nnc(C(C)C)n1C1CC2CCC(C1)N2CC[C@H](NC(=O)C1CCC(F)(F)CC1)c1ccccc1 (some centres undefined) | -1.02 | 4.5% and 0.415% | 11.1 | -13.8% and -17.7% | 2% and 2.57%
38 | CC1(C(=O)NC2CCCCC2)Cn2c(ccc2-c2ccccc2)C(=O)N1Cc1cccc(F)c1 (centres undefined) | 7.21 | 0% | 6.95 | 0.387% | 3.58%
